Laboratory results as given in PubChem BioAssay AID1476 (National Center for Advancing Translational Sciences (NCATS), 2009).
Screen size: about 200,000 compounds; about 4,500 (2.2%) were called active. Inconclusive results, whose numbers are uncertain, are shown with a selection of clear calls. Calls come from the whole dose curve; as a rule, active = well fitted inhibition curve with a large enough effect; inconclusive = small, poorly fitted or top-dose-only effect, or effect the other way; inactive = flat fitted curve, though single readings scatter. A potency beside an inconclusive call is a rough fit, not a confirmed value.

These compounds were tested against Cruzipain (Trypanosoma cruzi) (UniProt P25779) (assay: qHTS Assay for Promiscuous and Specific Inhibitors of Cruzain (without detergent)). Conditions: purified cruzain, Z-FR-AMC fluorescence, no detergent.
Sequence of UniProt P25779 (P25779 whole entry, looked up): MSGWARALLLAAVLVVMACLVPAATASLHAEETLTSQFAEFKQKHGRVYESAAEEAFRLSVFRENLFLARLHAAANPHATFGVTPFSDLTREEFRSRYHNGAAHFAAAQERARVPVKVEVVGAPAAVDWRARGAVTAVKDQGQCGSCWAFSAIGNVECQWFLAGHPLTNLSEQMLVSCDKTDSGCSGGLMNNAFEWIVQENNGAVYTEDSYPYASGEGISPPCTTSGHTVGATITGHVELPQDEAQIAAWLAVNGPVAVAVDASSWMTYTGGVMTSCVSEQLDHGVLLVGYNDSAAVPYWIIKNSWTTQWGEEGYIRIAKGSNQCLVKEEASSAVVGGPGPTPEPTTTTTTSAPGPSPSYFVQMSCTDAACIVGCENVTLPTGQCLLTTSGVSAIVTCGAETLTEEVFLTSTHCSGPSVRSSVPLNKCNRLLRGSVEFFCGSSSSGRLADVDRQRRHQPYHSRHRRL
How it was run: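 Purified cruzain at 1.5 nM, pre-incubated 15 min with compound at room temperature in 100 mM sodium acetate pH 5.5, 5 mM DTT, 0.00005% Triton X-100. Reaction started with 2 uM Z-FR-AMC; AMC fluorescence increase over 60 s gives rate.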
Note: nearly all actives have a fitted effect of over 40% in size.
Potency is the fitted concentration of half-maximal effect; tags give direction and shape of the fitted curve.
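Throughout, for max response, negative = inhibition: plate controls were enzyme without inhibitor for no effect and buffer without enzyme for full effect.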

Structure (SMILES)	Potency	max response, negative = inhibition
O=C(Nc1ccc(F)cc1F)c1ccc(-c2ccccc2)s1	inconclusive: 31.6 µM [inhibitor, single point]	–
COC(=O)c1ccc2c(=O)n(NC(=O)C(c3ccccc3)c3ccccc3)c(=S)[nH]c2c1	inconclusive: 39.8 µM [inhibitor, single point]	–
S=c1[nH]c2ccc(Cl)cc2[nH]1	–	inactive: -4.56%
Nc1nc(SCC(=O)NCc2ccc(F)cc2)[nH]c(=O)c1NC(=O)c1ccc(Cl)cc1	active: 25.1 µM	–
CCOC(=O)c1ccc(N2CCN(c3cccc(Cl)c3)CC2)c(NC(=O)Nc2ccc(Cl)cc2)c1	active: 3.98 µM	–
CCOc1cc(/C=N/NC(N)=O)cc(Br)c1OCC(=O)Nc1cccc2ccccc12	active: 6.31 µM	–
Cc1nnc(N2CCN(c3ccccc3)CC2)c2c1nnn2Cc1ccc(F)cc1	–	inactive: -10.1%
COc1ccc(Cl)cc1NC(=O)C1CCCN(c2cc(C)nc3ncnn23)C1 (stereo not given)	inconclusive: 31.6 µM [activator, single point]	–
Cc1nn(Cc2ccccc2Cl)c(C)c1C(=O)NCc1ccco1	inconclusive: 39.8 µM [activator, single point]	–
CCOC(=O)c1[nH]c(C)c(CCC(=O)N2CCN(c3cc(Cl)ccc3C)CC2)c1C	inconclusive: 31.6 µM [activator, single point]	–
CCOC(=O)c1c(C)[nH]c(C)c1S(=O)(=O)N1CCCC(C(=O)N2CCN(c3ccc(Cl)cc3)CC2)C1 (stereo not given)	inconclusive: 31.6 µM [activator, single point]	–
O=C(NCC1COc2ccccc2O1)c1ccc(NC(=O)C(c2ccccc2)c2ccccc2)cc1 (stereo not given)	inconclusive: 31.6 µM [inhibitor, single point]	–
COc1ccc(/C=N/NC(=O)Cc2csc(Nc3cccc(C(F)(F)F)c3)n2)c(OC)c1	–	inactive: -27.2%
COc1ccc(-n2c(CCC(=O)O)ccc2-c2ccccc2)cc1	inconclusive: 31.6 µM [inhibitor, single point]	–
COCCCNC(=O)c1cc2c(=O)n3cccc(C)c3nc2n(C(C)C)c1=N	inconclusive: 39.8 µM [inhibitor, single point]	–
CC(C)(C)c1ccc(-c2nc(-c3ccncc3)no2)cc1	inconclusive: 1.58 µM [inhibitor, single point]	–
Cn1c(N)c(C(=O)COC(=O)c2cc(S(=O)(=O)N3CCCCC3)ccc2Cl)c(=O)n(C)c1=O	inconclusive: 39.8 µM [activator, single point]	–
CCOc1cc(/C=N/NC(=O)CN2CCOCC2)ccc1OCc1ccc(Cl)cc1	inconclusive: 39.8 µM [activator, single point]	–
CCC(CC)C(=O)NCCc1cc2cc(C)c(C)cc2[nH]c1=O	–	inactive: 6.81%
Cc1cc2oc(=O)cc(COC(=O)c3n[nH]c4ccccc34)c2cc1C	inconclusive: 3.98 µM [inhibitor, full curve, poor fit]	–
COc1ccc(Cn2c(=O)c3oc4ccccc4c3n(CC(=O)Nc3cc(C)cc(C)c3)c2=O)cc1	–	inactive: -16.1%
Cc1c2cnn(CC(=O)NCCc3ccccc3)c(=O)c2c(C)n1Cc1ccccc1Cl	–	inactive: -1.55%

Structure (SMILES)	Potency	max response, negative = inhibition
Cc1[nH]n2c(=O)c(C#N)c(-c3ccccc3)nc2c1-c1ccccc1	inconclusive: 39.8 µM [inhibitor, single point]	–
C(=C\c1nc(-c2ccccc2)oc1Nc1ccc2ccccc2c1)/c1ccccc1	active: 25.1 µM	–
CC(=O)Nc1ccc(Nc2c3c4c(cccc4n(C)c2=O)C(=O)c2ccccc2-3)cc1	inconclusive: 25.1 µM [activator, partial curve]	–
COc1ccc(-c2coc3cc(O)ccc3c2=O)c(O)c1O	–	inactive: -18.9%
CN1CCc2nc(NC(=O)c3cccc(S(=O)(=O)N4CCc5ccccc54)c3)sc2C1	active: 15.8 µM	–
CCOc1ccccc1C1C(C#N)=C(N)Nc2onc(-c3ccccc3)c21 (stereo not given)	–	inactive: -21.6%
CCOc1ccc(-c2nnn(CC(=O)Nc3cc(OC)cc(OC)c3)n2)cc1OCC	inconclusive: 31.6 µM [activator, single point]	–
N#Cc1ccsc1NC(=O)COC(=O)c1ccc2ccccc2c1	inconclusive: 39.8 µM [inhibitor, single point]	–
Cc1ccc2nc(-c3ccc(NC(=O)Cc4cccs4)cc3)[nH]c2c1	inconclusive: 39.8 µM [inhibitor, single point]	–
O=C(NCC(c1cccnc1)N1CCOCC1)C(=O)Nc1cccc(Cl)c1 (stereo not given)	–	inactive: 3.37%
O=C(Nc1ncccc1O)c1cccc(S(=O)(=O)N2CCc3ccccc32)c1	–	inactive: -6.23%
CCOc1ccc(C(=O)Nc2cccc(-c3cc4ccccc4oc3=O)c2)cc1[N+](=O)[O-]	inconclusive: 31.6 µM [inhibitor, single point]	–
CCn1c2ccccc2c2nc3cc(S(=O)(=O)N4CCOCC4)ccc3nc21	inconclusive: 31.6 µM [activator, single point]	–
COC(=O)[C@@]1(Cc2ccc(OC)cc2)[C@H]2c3cc(C(=O)N(C)C)n(Cc4ccc(S(C)(=O)=O)cc4)c3C[C@H]2CN1C(=O)c1ccccc1	inconclusive: 12.6 µM [activator, partial curve]	–
Cn1c(=O)c(-c2cccs2)nc2cncnc21	–	inactive: -12.6%
COc1cc(/C=N/n2cnnc2)ccc1OCC(=O)N1CCOCC1	–	inactive: -12.6%
O=C(N/N=C/c1c[nH]c2ccccc12)c1cc(-c2ccc3ccccc3c2)n[nH]1	inconclusive: 39.8 µM [inhibitor, single point]	–
COc1cccc(C(=O)Nc2ccc3nc(SCc4ccc(C)cc4)sc3c2)c1	–	inactive: -19.4%
O=C(CSc1ccccn1)c1ccc2c(c1)OCO2	–	inactive: -9.3%
COCCCNC(=O)CSc1nc2nc(C)c(Cc3ccccc3Cl)c(C)n2n1	–	inactive: 5.53%
COc1cc2nc(NCc3ccccc3Cl)n3nc(-c4cccnc4)nc3c2cc1OC	inconclusive: 31.6 µM [inhibitor, single point]	–
O=C(CSc1nnc(CN2CCOCC2)n1-c1ccccc1)Nc1ccc(Cl)cc1	inconclusive: 31.6 µM [activator, single point]	–

Structure (SMILES)	Potency	max response, negative = inhibition
CN(C)c1ccc(-c2nc(-c3ccncc3)no2)cc1[N+](=O)[O-]	–	inactive: -5.98%
COc1cc(/C=N/N=C(/C(=O)c2ccccc2)c2ccccc2)cc(OC)c1O	inconclusive: 31.6 µM [activator, single point]	–
COc1ccccc1NC(=S)N(Cc1ccco1)Cc1cc2cc(C)c(C)cc2[nH]c1=O	inconclusive: 25.1 µM [inhibitor, single point]	–
COc1ccc(C)c2sc(N(Cc3cccnc3)C(=O)COc3ccccc3)nc12	inconclusive: 31.6 µM [activator, single point]	–
CCn1cc(CNC(=O)c2cc(-c3cc(OC)ccc3OC)nc3ccccc23)c(C)n1	inconclusive: 39.8 µM [activator, single point]	–
COc1ccc(S(=O)(=O)N2CCC(CN3C(=O)c4cccc5cccc(c45)C3=O)CC2)cc1	active: 25.1 µM	–
COc1ccc(N(CC(=O)N2CCN(c3ccccc3)CC2)S(=O)(=O)c2c(C)noc2C)cc1	inconclusive: 31.6 µM [activator, single point]	–
COc1cccc(Nc2cc(-c3ccccc3)nc(C)n2)c1	–	inactive: -3.72%
Cc1ccc(C)c(N2CCN(C(=O)c3cc(S(=O)(=O)N4CCCC4)c[nH]3)CC2)c1	inconclusive: 39.8 µM [activator, single point]	–
CCc1ccccc1N1C(=O)N(Cc2cc(=O)n3ccccc3n2)c2ccccc2S1(=O)=O	inconclusive: 39.8 µM [activator, single point]	–
COc1cc2c(=O)n(CC3CCCO3)c(=O)n(CC(=O)Nc3ccc(F)cc3F)c2cc1OC (stereo not given)	inconclusive: 31.6 µM [activator, single point]	–
O=[N+]([O-])c1c(NCCCO)cc(Sc2nc3ccccc3s2)c2nonc12	inconclusive: 31.6 µM [inhibitor, single point]	–
CCCCCCOC(=O)c1ccc(OC(=O)c2cccnc2)cc1	inconclusive: 39.8 µM [activator, single point]	–
COc1ccc(Cc2c(C)nn(-c3nc(C)c(C(=O)Nc4cccc(C(C)=O)c4)s3)c2C)cc1	–	inactive: 4.06%
CCOC(=O)c1[nH]c(C)c(CCC(=O)N2CCN(c3ccc(Cl)cc3)CC2)c1C	inconclusive: 25.1 µM [activator, single point]	–
CCS(=O)(=O)c1nc(S(=O)(=O)c2ccc(Cl)cc2)c(NCc2ccc(Cl)cc2)s1	inconclusive: 39.8 µM [inhibitor, single point]	–
COc1ccc(CNC(=O)CCn2c(=O)c3cccn3c3ccc(F)cc32)cc1OC	–	inactive: 25.5%
O=C1CSC(c2cn(-c3ccccc3)nc2-c2cc3ccccc3oc2=O)N1Cc1cccnc1 (stereo not given)	inconclusive: 39.8 µM [activator, single point]	–
CCC1CCCCN1S(=O)(=O)c1ccc(C(=O)Nc2nnc(-c3ccccc3Cl)o2)cc1 (stereo not given)	inconclusive: 39.8 µM [inhibitor, single point]	–
CC(=O)c1cccc(S(=O)(=O)N(Cc2cc3cc4c(cc3[nH]c2=O)OCCO4)CC2CCCO2)c1 (stereo not given)	inconclusive: 39.8 µM [activator, single point]	–
CCOC(=O)c1sc(NC(=O)/C=C/c2cnn(CC)c2C)c(C(=O)OCC)c1C	inconclusive: 31.6 µM [activator, single point]	–
